# Data reported in the RNAGym collection of RNA variant scans (doi:10.7554/elife.90254).
# Read counts are not given, so values of variants with three or more changes are uncertain.
# B1: LINE1-full (parent)
# chain: UACGUAGGUGGUUUUCCCCUGAUAGUGCUAAGGGGGCCUGGAAGUUUGGACUGGGCAGAGCUCAACACAGCGUGGCAAAGUGGCUGUGGCUAGACUGCCUCUCUGGAUUCCUCGUCACUCAGCAGGGCAUCUCUGAGAGAAAUGCC
# Variants of: B1
# Test: self-cleavage, relative activity (ratio to wild type); higher = more cleavage; in vitro, sequencing; the parent is a self-cleaving ribozyme
row,Variant,self-cleavage
1,UACGUAGGUGGUUUUCCCCUGAUAGUGCUAAGGGGGCCUGGAGGUUUGGACUGGGCAGAGCUCAACACAGCGUGGCAAAGUGGCUGUGGCUAGAUUGCCUCUCUGGAUUCCUCGUCGCCCAGCAGGGCAUCUCUGAGAGAGAUGCC,0.17
2,UACGUAGGUGGUUUUCCCCUGAUAGUGCUAAGGGGGCCUGGAAGUUUGGGCUGGGCGGAGCUCAACUCAGCGUGGCAAAGUGGCUGUGGCUAGACUGCCUCUCUGGAUUCCUCGUCACUCAGCAGGGCAUCUCUGGGAGAAAUGCC,0.11
3,UACGUAGGAGGCUUUCCCCUGAUAGUGCUAAGGGGGCCUGGAAGUUUGGACUGGGCAGAGCUCAACACAGCGUGGCAAAGUGGCUGUGGCUAGACUGCCUCUCUGGAUUCCUCGUCACUCAGCAGGGCAUCUCUGAGGGAAAUGCC,0.87
4,UACGUAGGAGGUUUUCCCCUGAUAGUGCUAAGGGGGCCUGGAAGUUCGGACUGGGCAGAGCUCAACACAGCGUGGCAAAGUGGCUGUGGCUAGACUGCCUCUCUGGAUUCCUCGUCACUCAGCAGUGCAUCUCUGAGAGAAAUGCC,0.82
5,UACGUAGGUGGUUCUCCCCUGAUGGUGCUAAGGGGGCCUGGAAGUUUGGACUGGGCAGAGCUCAACACAGCGUGGCAAAGUGGCUGUGGCUAGUCUGCCUCUCUGGAUUCCUCGUCACUCAGCAGGGCAUCUCUGAGAGAAACGCC,0.52
6,UACGUAGGUGGUUUUCCCCUGAUAGUGCUAAGGGGGCCUGGAAGUUUGGACUGGGCAGAGCUCAACACAGCGAGGCAAAGUGGCUGUGGCUAGACUGCCUCUCUGGAUUCCUCGACACUCAGCAGGGCAUCUCUGGGAGAAAUGCC,1.55
7,UACGUAGGUGGUUUUCCCCUGAUAGUGCUAAGGGGGCCUGGAAGUUUGGACUGGGCAGAGCUCAACACAGCGUGGCAAAGUGGCUGUGGCUAGACUGCCCCUCUGGAUUCCUCGUUACUCAGCAGGGCACCUCUGAGAGAGAUGCC,1.2
8,UACGUAUGUGGUUUUCCCCUGAUAGUGCUAAGGGGGCCUGGAAGUUUGGACUGGGCAGAGCUCAACACAGCGUGGCAAAGUGGCUGUGGCUAGACUGCCUCUCUGGAUUCCUCGUCACUCAGAAGGGCAUCUCUGCGAGAAAUGCC,1.7
9,UACGUAGGUGGUUCUCCCCUGAUAGUGCUAAGGGGGCCUGGAAGUUUGGACUGGGCAGAGCUCAACACAGCGUGGCAAAGUGGCUGUGGCUAGACUGCCUCUCUGGAUCCCUCGUCACUCAGCAGGGCAUCUCCGAGAGAAAUGUC,1.48
10,CACGAAGGUGGUUUUCCCCUGAUAGUGCUAAGGGGGCCUGGAAGUUUGGACUGGGCAGAGCUCAACACAGCGUGGCAAAGUGGCUGUGGCUAGACUGCCUCUCUUGAUCCCUCGUCACUCAGCAGGGCAUCUCUGAGAGAAAUGCC,0.78
11,UACGUAGGUGGUUUUCCCCUGAUGGUGCUAAGGGGGCCUGGAAGUUUGGACUGGGCGGAGCUCAACACAGCGUGGCAAAGUGGCUGUAGCUAGGCUGCCUCUCUGGAUUCCUCGUCACUCAGCGGGGCAUCUCUGAGAGAAAUGCC,0
12,UACGUAGGUGGUUUUCCCCUGAUAGUGCUAAGGGGGCCUGGAGGUUUGGACUGGGCAGAGCUCAUCACAGCGUGGCAAAGUGGCUGUGGCUAGACUGCCUCUCUGGACUCCUCGUCACUCAGCAGGGCACCUCUGAGAGAAGUGCC,0
13,UACGUAGGUGGUUUUCCCCUGAUAGUGCUAAGGGUGCCUGGAAGUUUGGACUGGGCAGAGCUCAACACAGCGUGGCAAAGUGGCUGUGGCUAGACUGCCUCUCUUGAUUCCUCGUCACUCAGCAGGGCAUCUCUGAGAGAAGUGCC,0.87
14,UACGUAGGUGGUUUUCCCCUGAUAGUGCUAAGGGGGCCUGGAAGUUUGGACUUGGCAGAGCUCAACACAGCGUGGCUAAGUGGCUGUGGCUAGACUGCCUCUCUGGAUUCCUCGUCACUCAGCAGGGCACCUCUGAGAGAAAUGCC,1.84
15,UACGUAGGUGGUUUUCCCCUGAUAGUGCUAAGGGGACCUGGAAGUUUGGACUGGGCAGAGCUCAACACAGCGUGGCUAAGUGGCCGUGGCUAGACUGCCUCUCUGGAUUCCUCGUCACUCAGCAGGGCAUCUCUGAGAGAAAUGCC,0.05
16,UACGUAGGUGGUUUUCCCCUGAUAGUGCUAAGGGGGCCUGGAAGUGUGGACUGGGCAGAGCUCAACACAGCGUGGCAGAGUGGCUGUGGCUAGACUGCCUCACUGGAUUCCUCGUCACUCAGCAGGGCAUCUCUGGGAGAAAUGCC,1.15
17,UACGUAGGUGGUUCCCCCCUGAUAGUACUAAGGGGGCCUGGAAGUUUGGACUGGGCAGAGCUCAACACAGCGUGGCCAAGUGGCUGUGGCUAGACUGCCUCUCUGGAUUCCUCGUCACUCAGCAGGGCAUCUCUGAGAGAAAAGCC,0.73
18,UACGUAGGUGGUUUUCCCCUGAUAGUGCUAAGGGGGCCUGGAAGUUUGGACUGGGCAGAGCUCAACACGGCGUGGCAAAGUGGCUGUGGCUAGACUGCCUCCCUGGAUUCCUCGUCACUCAGCAGGGCACCUCUGAGAGAAAUGCC,0
19,CACGUAGGUGGUUUUCCCCUGAUAGUGCUAAGGGGGCCUGGAAGUUCGGACUGGGCAGAGCUCAACACAGCGUGGCAAAGUGGCUGUGGCCAGACUGCCUCUAUGGAUUCCUCGUCACUCAGCAGGGCAUCUCUGAGAGAAAUGCC,0
20,UACGUAGGUGGUUUUCCCCUGAUGGUGCUAAGGGGGCCUGGAAGCUUGGACUGGGCAGAGCUCAACACAGCGUGGCAAAGUGGCUGUGGCUAGACUGCCUCUCUGGAUUCCUCGUCACUCAGCAGGGCAUCUCUGGGAGAAAUGCC,0.61

row,Variant,self-cleavage
1,UACGUGGGUGGUUUUCCCCUGAUAGUGCUAAGGGGGCCUGGAAGUUCGGACUGGGCUGAGCUCAACACAGCGUGGCAAAGUGGCUGUGGCUAGACUGCCUCUCUGGAUUCCUCGUCACUCAGCAGGGCAUCUCUGAGAGAAAUGCC,0.2
2,UACGUAGGUGGUUUUCCCCUGAUAGUGCUAAGGGGGCCUGGAAGUUUGGACUGGGCAGAGCUCGACACAGCGUGGCAAAGUGGCUGUGGCUAGACUGCCUCUCCGGAUUCCUCGUCACUCAGCAGGGCGUCUCUGUGAGAGAUGCC,0.54
3,CACAUAGGUGGUUUUCCCCUGAUGGCGCUAUGGGGGCCUGGGAGUUUGGACUGGGCAGAGCUCAACACAGCGUGGCAAAGUGGCUGUGGCUAGACUGCCUCUCUGGAUUCCUCGUCACUCAGCAGGGCAUCUCUGAGAGAAAUGCC,0
4,UACGUAGGUGGUUAUCCCCUGAUAGUGCUAAGGGUGCCUGGAAGAUUGGACUGGGCAGAGCUCAACACGGCGUGGCAAAGUGGCUGUGGCUAGACUGCCUCUCUGGAUUCCUCGUCACUCAGCAGGGCAUCUCUGAGAGAAAUGCC,0.64
5,UACGUAGGUGGUUUUCCCCUGAUAGCGCCAAGGGGGCCUGGAAGUUUGGACUGGGCAGAGCUCAACACAGCGUGGCAAAGUGGCUGUGGCUAGACUGCCUCUCUGGACUCCUCGUCACUCAGCAGGGCAUCUCUGAGAGAAAUGCC,1.08
6,UACGUAGGUGGUUUCCCCCUGAUAGUGCUAAGGGGGCCUGGAAGCUUGGACUGGGCAGAGCUCAACACAGCGUGGCAAAGUGGCUGUGGCUAGACUGCCUCUCUGGAUUCCUCGUCACUCAGCAGGGCAUCUCUGAGCGAAAUGCC,2.16
7,UACGUAGGUGGUUUUCCCCCGAUAGUGCAAAGGGGGCCUGGAAGGUUGGACUGGGCAGAGCUCAACACAGCGUGGCAAAGUGGCUGUGGCUAGACUGCCUCUCUGGAUUCCUCGUCACUCAGCAGGGCAUCUCUGAGAGGAAUGCC,0.46
8,UACGUAGGUGGUUUUCCCCUGAUAGUGCUAAGGGGGCCUGGAAGUUUGGACUGGGCAGAGCUCAACACAGCGUGGCAAAGUGGCUGUGGCUAGACUGCCUCUCUGGAUUCCCCGUCACUCAGCAGGGCAUCUCUGAGGGAACUGCC,0.77
9,UACGUAGGUGGUUUUCCCCUGAUAGUGCUAAGGGGGCCUGGAAGUUUGGACUGGGCAGAGCUCAACACUGCGUAGCAAAGUGGCUGUGGCUAGACUGCCUCUCUGGAUUCCUCGUCACUCAGCAGGGCAUCUCUGUGAUAAAAGCC,0.06
10,UACGUAGGUGGUUAUCCCCUGAUAGUGCUAAGGGGGCCUGGAAGUUUGGACUGGGCAGAGCUCAACACAGCGUGGCAAGGUGGCUGAGGCUAGACUGCCUCUCUGGAUUCCUCGUCACUCAGCAGGGCAUCUCUGAGGGAAAUGCC,0.06
11,UACGUAGGUGGUUUUCCCCUGAUAGUGCUAAGGGGGCCUGGAAGUUUGGACUGGGCGGAGCUCAACACAGCGUGGCAAAGUGGCUGUGGCUAGACUGCCUCUCUGGAUUCCUCGUCGCUCAGCAGGGCAUCUCUGAGGGAAAUGCC,0.97
12,UACGAAGGUGGUCUUCCCCUGAUAGUGCUAAGGGGGUCUGGAAGUUUGGACUGGGCAGAGCUCAACUCAGCAUGGCAAAGUGGCUGUGGCUAGACUGCCUCUCUGGAUUCCUCGUCACCCAGCAGGGCAUCUCUGAGAGAAAUGCC,0.08
13,UACGUAGGUGGUUUUCCCCUGAUAGUGCUAAGGGGGCCUGGAAGUCUGGACUGGGCAGAGCACAACACAGCGUGGCAUAGUGGCUGUGGCUAGACUGCCUCUCUGGAUUCCUCGUCACUCAGCAGGGCAACUCUGAGAGAAAUGCC,0.05
14,UACGCGGGUGGUUUUCCCCUGAUAGUGCUAAGGGGGCCUGGAAGUUUGGAGUGGGCAGAGCUCAACACAGCGUGGCAAAGUGGCUGUGGCUAGACUGCCUCUCUGGAUUCCUCGUCACUCAGCAGGGCAUCUCUGAGAGAAAUGCC,0.89
15,UACGUAGGUGGUUUUCCCCUGAUAGCGCUAAGGGGGCCUGGAAGUUUGGACUGGGCAGAGCUCAACGCAGCGUGGCAAAGUGGCUGUGGCUAGACUGCCUCUCUGGAUUCCUCGUCACUCAGCAGGGCAUCUCUGAGAGAGAUGCC,0.54
16,UACGUAGGUGGUUUUCCCCUGAUAGUGCUAAGGGGGCCUGGAAGUUUGGGCAGGGCAGAGUUCAACACAGCGUGGCAAAGUGGCUGUGGCUAGACUGCCUCUCUGGAUUCCUCGUCACUCAGCAGGGCAUCUCUGAGAGAAACGCC,0
17,UACGUAGGUGGUUUUCCCCUGUUAGUGCUAAGGGGGCCUGGAAGUUUGGACUGGGCAGAGCUCAGCACAGCGUGGCAAAGUGGCUGUGGCUAGACUGCCUCUCUGGAUUCCCUGUCACUCAGCAGGGCAUCUCUGAGAGAAAUGCC,0
18,UACGUAGGCGGUUUUCCCCUGUUAGUGCUAAGGGGGCCUGGAAGUCUGGACUGGGCAGAGCUCAACACAGCGUGGCAAAGUGGCUGUGGCUAGACUGCCUCUCUGGAUUCCUCGUCACUCAGCAGGGCAUCUCUGAGAGAAAUGCC,1.44
19,UACGUAGGUGGCUUUCCCCUGAUAGUGCUAAGGGGGCCUGGAAGUUUGGACUGGGCAGAGCUCAACACAGCGUGGCAAAGUGGCAGUGGCUAGACUGUCUCUCUGGAUUCCUCGUCACUCAGCAGGGCAUCUCUGAGAGAAAUGCC,0.04
